# Reference: PubChem BioAssay (NCATS)
# This list was built around the results that the source calls inconclusive (neither active nor inactive); the mix of calls is not that of the screen. For part of these data: Where the call is inconclusive, the potency comes from a doubtful curve fit. Calls of active or inactive are those of the source. Unless noted, the call rests on the fitted dose curve; in most records, active means well fitted curve in the direction sought with a large enough effect; inconclusive means small, poorly fitted or top-dose-only effect, or another doubt; inactive means no such curve, though single readings can be large; an effect the other way counts as inactive or inconclusive.
# Assays:
# [1] = AP1 Signaling Pathway (AID 357; active means well fitted curve in either direction with a large enough effect, not every such curve was filed as active; inconclusive means small, poorly fitted or top-dose-only effect, or another doubt;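 further: ME-180 reporter cells stimulated with EGF at its EC50 level; top concentration of the series differs between compounds; on the % scale 0 is the no-effect control and ±100 the full control effect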); conditions: ME-180 AP-1-bla reporter, EGF-induced, beta-lactamase ratio, 5 h; at 17.2 µM (top of the series) unless noted
# Summary of the method: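 Beta-lactamase reporter under AP-1 response element, ME-180 background. Stimulus: EC50 EGF. Compound exposure 5 h, 37 °C. Detection: CCF4, 2.5 h RT, 460/530 nm. Values: AC50 from titration.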
# [2] = molecular target: Cytochrome P450 2C9 (Homo sapiens) (UniProt P11712); experiment: qHTS Assay for Inhibitors and Substrates of Cytochrome P450 2C9 (AID 883); conditions: recombinant CYP2C9, luciferin-H luminescence, 60 min; activity change, negative = inhibition: at 57.1 µM (top of the series); further: potency means the concentration at half of the fitted maximal effect; nearly all actives have a fitted effect of over 60% in size
# Summary of the method: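 Inhibition of CYP2C9 is scored as loss of luminescence, with 57uM sulphaphenazole defining 100% inhibition. Substrate Luciferin-H is used at 100uM, equal to its KM; enzyme at 10nM in 25mM KPO4, 60 min at 37C with NADPH regeneration.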
# [3] = qHTS Assay for Identification of Small Molecule Agonists for Hypoxia Response Element Signaling Pathway (AID 914; active means well fitted activation curve with a large enough effect in the signal ratio, with a control signal flat, not every such curve was filed as active; inconclusive means small, poorly fitted or top-dose-only effect, or effect the other way, or a change in a side signal; the % refers to the signal ratio; further: potency means the concentration at half of the fitted maximal effect; on activation: top concentration of the series differs between compounds; % of control where 0% means no effect); conditions: ME-180 HRE-bla reporter, beta-lactamase ratio, CoCl2, 17 h; activation: hits give high values
# Summary of the method: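 HRE-bla ME-180 assay for agonist-like enhancement of an EC50 CoCl2 stimulus: 17 h at 37 degrees Celsius, CCF4 for 2.5 h, ratiometric 460/530 nm signal converted to %Activity and fitted to AC50.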
# [4] = qHTS Assay for Identification of Small Molecule Antagonists for NFkB Signaling Pathway (AID 895; active means well fitted inhibition curve with a large enough effect in the signal ratio, with a control signal flat, not every such curve was filed as active; inconclusive means small, poorly fitted or top-dose-only effect, or effect the other way, or a change in a side signal; the % refers to the signal ratio; further: potency means the concentration at half of the fitted maximal effect); conditions: NFkB beta-lactamase reporter cells, FRET ratio 460/530, stimulated with 10 pM TNF alpha; activity change, negative = inhibition: at 38.3 µM (top of the series)
# Summary of the method: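 Beta-lactamase reporter read-out (460 and 530 nm emission ratio, 405 nm excitation, 2 hrs substrate loading RT) after 5 hr stimulation with 10 pM TNF alpha in compound-treated NFkB-bla ME-180 cells in low-serum medium.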
# [5] = qHTS Assay for Identification of Small Molecule Agonists for Thrombopoietin (TPO) Signaling Pathway (AID 917); conditions: TPO signaling pathway reporter cells, agonist qHTS, stimulated with TPO at its EC50; activity, positive = activation: at 38.5 µM (top of the series); further: potency means the concentration at half of the fitted maximal effect
# Summary of the method: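 We measured Glycoprotein IIb promoter–luciferase output in IL-3-starved Ba/F3 murine cells expressing the human TPO receptor after 24 hrs at 37 C with compounds and 26 pM TPO.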
# [6] = qHTS Assay for Identification of Small Molecule Antagonists for Thrombopoietin (TPO) Signaling Pathway (AID 918); conditions: TPO-dependent cell signaling reporter, antagonist mode; activity change, negative = inhibition: at 38.5 µM (top of the series); further: potency means the concentration at half of the fitted maximal effect; nearly all actives have a fitted effect of over 60% in size
# Summary of the method: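 Murine Ba/F3 cells stably expressing human TPO receptor and a Glycoprotein IIb promoter–luciferase reporter were IL-3-starved overnight, treated with compounds plus TPO (26 pM final, its EC50) for 24 hrs at 37 C, then read by luminescence.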
# [7] = qHTS Assay for Identification of Small Molecule Agonists for NFkB Signaling Pathway (AID 928; calls by dose curve); conditions: NFkB beta-lactamase reporter cells, blue/green ratio
# Summary of the method: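 ME-180 NFkB-bla cells carry a beta-lactamase reporter under an NFkB response element. Compound plus 10 pM TNF alpha (final) was applied for 5 hrs at 37 C. After 2 hrs with LiveBLAzer substrate, 460/530 nm emission was read at 405 nm excitation.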
# [8] = molecular target: Muscarinic acetylcholine receptor M1 (Rattus norvegicus) (UniProt P08482); experiment: qHTS Assay for Antagonists of Acetylcholine Muscarinic M1 Receptor: Kinetic Measurement of Intracellular Calcium Response (AID 943); further: potency means the concentration at half of the fitted maximal effect; nearly all actives have a fitted effect of over 75% in size
# Summary of the method: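 CHO cells stably expressing rat M1 were loaded with no-wash Fluo-4 dye for 1 h at 37C, pre-incubated 10 min with compound, then challenged with EC80 carbachol (100 nM final); kinetic calcium read 4 min, peak/basal ratio.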
# [9] = molecular target: 3',5'-cyclic-AMP phosphodiesterase 4B (Homo sapiens) (UniProt Q07343); experiment: qHTS Assay for Inhibitors of PDE-IV (AID 607; active means well fitted activation curve with a large enough effect in the main read-out, with a control signal flat, not every such curve was filed as active; inconclusive means small, poorly fitted or top-dose-only effect, or effect the other way, or a change in a side signal; further: potency means the concentration at half of the fitted maximal effect); conditions: HEK293 ACTOne CNG channel cells, membrane potential fluorescence; activation (PDE inhibition): at 22.9 µM (top of the series)
# Summary of the method: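 The readout is membrane depolarisation from a cAMP-sensing CNG channel, detected with a potential dye at ex 535/em 590. Cells were HEK293-derived (endogenous PDE-IV) at 1000 cells/well, titrated up to 22.9 uM final.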
# [10] = molecular target: Cytochrome P450 3A4 (Homo sapiens) (UniProt P08684); experiment: qHTS Assay for Inhibitors and Substrates of Cytochrome P450 3A4 (AID 884); further: potency means the concentration at half of the fitted maximal effect; nearly all actives have a fitted effect of over 50% in size
# Summary of the method: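 20 nM human CYP3A4 with 25 uM Luciferin-PPXE (at KM) in 200 mM KPO4, preincubated 10 min with compound; NADPH regeneration started a 60 min RT reaction. Luciferin detected by luminescence, normalized to 57 uM ketoconazole as full inhibition.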
# [11] = molecular target: Cytochrome P450 3A4 (Homo sapiens) (UniProt P08684); experiment: qHTS Assay for Activators of Cytochrome P450 3A4 (AID 885); further: potency means the concentration at half of the fitted maximal effect; nearly all actives have a fitted effect of over 65% in size
# Summary of the method: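 Steps: enzyme/substrate mix dispensed; compound added, 10 min RT; NADPH regeneration solution added, 60 min RT; luciferin detection buffer stops reaction; 20 min later luminescence measured.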
# Tags describe the fitted curve by direction and shape or compound fluorescence and quenching.
# UniProt P08684, sequence (P08684 whole entry, looked up): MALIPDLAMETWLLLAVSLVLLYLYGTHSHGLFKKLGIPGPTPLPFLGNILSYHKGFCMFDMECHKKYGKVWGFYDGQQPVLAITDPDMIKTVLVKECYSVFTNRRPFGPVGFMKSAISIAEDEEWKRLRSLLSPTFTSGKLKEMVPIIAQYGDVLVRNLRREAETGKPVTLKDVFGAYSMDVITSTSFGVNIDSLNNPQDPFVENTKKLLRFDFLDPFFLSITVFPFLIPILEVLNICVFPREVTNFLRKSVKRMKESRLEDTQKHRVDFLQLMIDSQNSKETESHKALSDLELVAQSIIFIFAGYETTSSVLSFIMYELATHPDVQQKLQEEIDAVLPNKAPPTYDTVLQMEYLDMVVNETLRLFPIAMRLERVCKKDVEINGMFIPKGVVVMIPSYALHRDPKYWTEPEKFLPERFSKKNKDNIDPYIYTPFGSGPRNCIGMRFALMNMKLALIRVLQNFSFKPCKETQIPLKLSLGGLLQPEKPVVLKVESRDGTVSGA
# UniProt P11712, sequence (P11712 whole entry, looked up): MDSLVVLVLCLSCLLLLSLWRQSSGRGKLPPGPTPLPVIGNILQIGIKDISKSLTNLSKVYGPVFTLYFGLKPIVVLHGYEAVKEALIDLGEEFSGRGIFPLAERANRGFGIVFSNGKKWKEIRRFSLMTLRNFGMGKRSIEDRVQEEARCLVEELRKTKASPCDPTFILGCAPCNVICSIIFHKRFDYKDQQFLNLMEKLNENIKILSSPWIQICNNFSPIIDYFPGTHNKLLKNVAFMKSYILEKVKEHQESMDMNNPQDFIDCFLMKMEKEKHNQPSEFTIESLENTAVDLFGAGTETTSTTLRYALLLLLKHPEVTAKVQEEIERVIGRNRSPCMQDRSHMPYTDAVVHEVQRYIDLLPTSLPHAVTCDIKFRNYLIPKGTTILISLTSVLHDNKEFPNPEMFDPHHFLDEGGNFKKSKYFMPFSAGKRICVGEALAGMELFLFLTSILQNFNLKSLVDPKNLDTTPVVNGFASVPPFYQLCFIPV
# UniProt Q07343, sequence (Q07343 whole entry, looked up): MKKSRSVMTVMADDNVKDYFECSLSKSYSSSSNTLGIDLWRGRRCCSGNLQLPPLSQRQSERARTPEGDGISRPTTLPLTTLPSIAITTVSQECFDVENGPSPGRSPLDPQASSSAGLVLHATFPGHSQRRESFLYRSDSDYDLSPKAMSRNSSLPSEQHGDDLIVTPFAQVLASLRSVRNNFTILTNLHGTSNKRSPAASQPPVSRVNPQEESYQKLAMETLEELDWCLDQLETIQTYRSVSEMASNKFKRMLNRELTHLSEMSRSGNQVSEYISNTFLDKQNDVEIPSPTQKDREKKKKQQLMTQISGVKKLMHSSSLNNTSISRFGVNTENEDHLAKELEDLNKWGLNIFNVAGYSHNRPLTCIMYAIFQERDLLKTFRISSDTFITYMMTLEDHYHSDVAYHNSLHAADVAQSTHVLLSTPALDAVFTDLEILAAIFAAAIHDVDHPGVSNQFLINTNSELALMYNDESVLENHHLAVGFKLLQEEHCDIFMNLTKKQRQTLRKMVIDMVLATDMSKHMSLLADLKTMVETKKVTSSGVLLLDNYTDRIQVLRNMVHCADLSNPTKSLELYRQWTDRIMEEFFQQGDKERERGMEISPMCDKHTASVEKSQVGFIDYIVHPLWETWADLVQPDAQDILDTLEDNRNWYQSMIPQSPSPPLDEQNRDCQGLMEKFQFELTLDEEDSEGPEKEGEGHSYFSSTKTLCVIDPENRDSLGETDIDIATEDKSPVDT
# UniProt P08482, sequence (P08482 whole entry, looked up): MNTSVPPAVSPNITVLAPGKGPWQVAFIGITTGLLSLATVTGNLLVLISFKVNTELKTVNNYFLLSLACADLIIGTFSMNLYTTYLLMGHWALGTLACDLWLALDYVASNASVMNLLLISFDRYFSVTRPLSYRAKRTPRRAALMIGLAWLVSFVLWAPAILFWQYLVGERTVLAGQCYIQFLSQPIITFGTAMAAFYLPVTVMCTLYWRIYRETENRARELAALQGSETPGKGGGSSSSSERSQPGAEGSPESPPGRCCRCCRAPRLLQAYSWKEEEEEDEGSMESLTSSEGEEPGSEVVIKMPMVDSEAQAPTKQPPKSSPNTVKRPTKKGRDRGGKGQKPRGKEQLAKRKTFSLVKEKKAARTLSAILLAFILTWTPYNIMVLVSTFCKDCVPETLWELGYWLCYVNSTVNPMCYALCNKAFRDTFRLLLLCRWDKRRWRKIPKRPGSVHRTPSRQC
smiles,measurement,setting,value
COc1cccc(-c2cncnc2NCc2ccccc2)c1,"activity change, negative = inhibition",[1],inactive: -17.1% [at 7.69 µM]
same,Potency,[2],"inconclusive: 0.158 µM [inhibitor, partial curve]"
same,activation,[3],inconclusive: -26.1%
CC(C)c1ccc(/C(C(=O)O)=C(\O)C(=O)O)cc1,"activity change, negative = inhibition",[1],inactive: -1.43% [at 7.69 µM]
same,Potency,[2],"inconclusive: 3.16 µM [inhibitor, partial curve]"
same,activation,[3],inconclusive: 5.54%
OC[C@@H]1O[C@@H](n2cnc3c(Nc4ccccc4)ncnc32)[C@@H](O)[C@H]1O,"activity change, negative = inhibition",[1],inactive: 7.84% [at 38 µM]
same,Potency,[4],active: 2.24 µM
same,Potency,[5],active: 3.98 µM
same,Potency,[6],"inconclusive: 3.98 µM [activator, partial curve]"
same,Potency,[7],"inconclusive: 2.24 µM [inhibitor, full curve]"
same,Potency,[8],"inconclusive: 0.316 µM [inhibitor, partial curve, poor fit]"
C[C@@H](Cc1cccc(C(F)(F)F)c1)NCCOC(=O)c1ccccc1,"activity change, negative = inhibition",[1],inconclusive: 39.6% [activator]
same,Potency,[9],"inconclusive: 15.1 µM [activator, partial curve]"
same,activation,[3],inconclusive: -50.7%
Cn1c(=S)c2[nH]c(SCCCc3ccccc3)nc2n(C)c1=O,"activity change, negative = inhibition",[1],inconclusive: 117% [activator] [at 7.69 µM]
same,Potency,[2],"inconclusive: 3.16 µM [inhibitor, single point]"
same,Potency,[3],"inconclusive: 1 µM [inhibitor, partial curve]"
CN(C)Cc1ccccc1-c1cc(-n2ccnc2)ncn1,"activity change, negative = inhibition",[1],inactive: -2.52% [at 7.69 µM]
same,Potency,[10],"inconclusive: 2.51 µM [inhibitor, partial curve, poor fit]"
c1ccc2cc(NCNc3ccc4ccccc4c3)ccc2c1,"activity change, negative = inhibition",[1],inconclusive: 39.3% [activator] [at 7.69 µM]
same,Potency,[10],"inconclusive: 3.98 µM [inhibitor, partial curve]"
COC(=O)N1CCC2(CC1)CN(c1ccc(-c3ccccc3)cc1)C2,"activity change, negative = inhibition",[1],inconclusive: 5.65% [activator] [at 7.69 µM]
same,Potency,[11],active: 3.16 µM
same,activation,[3],inconclusive: -26.8%
COc1ccccc1CNc1ncnc2ccc(-c3ccc4c(c3)OCO4)cc12,"activity change, negative = inhibition",[1],inconclusive: -37.4% [inhibitor] [at 7.69 µM]
same,Potency,[9],"inconclusive: 12.6 µM [rising, single point]"
same,Potency,[2],"inconclusive: 0.398 µM [inhibitor, partial curve]"
same,Potency,[3],"inconclusive: 5.01 µM [inhibitor, single point]"
COc1ccc2c(=O)cc(-c3ccncc3)oc2c1OC,"activity change, negative = inhibition",[1],inconclusive: -35.2% [inhibitor] [at 7.69 µM]
same,Potency,[10],"inconclusive: 3.98 µM [inhibitor, single point]"
CC(=O)c1c(C)c2c(n1CCN(C)C)CCCC2,"activity change, negative = inhibition",[1],active: 123% [activator]
same,Potency,[3],"inconclusive: 1.26 µM [inhibitor, partial curve]"
